# From PubChem BioAssay AID1347043 (National Center for Advancing Translational Sciences (NCATS), 2019)
# Out of some 76,000 compounds screened, about 1,900 (2.5%) were called active. The inconclusive results got no clear call from the source; some entries with a clear call stand among them for comparison. Calls follow the shape of the dose curve; as a rule, active = well fitted inhibition curve with a large enough effect; inconclusive = small, poorly fitted or top-dose-only effect; inactive = flat fitted curve, though single readings scatter. Potencies beside an inconclusive call are fits to weak or partial responses and may not hold up.
# Biological target: Luciferin 4-monooxygenase (Photinus pyralis) (UniProt P08659)
# Test: Firefly luciferase inhibition profiling of diverse chemical library using quantitative high-throughput screening; also: nearly all actives have a fitted effect of over 65% in size
# Conditions: purified P. pyralis luciferase, luminescence, biochemical; series mostly up to 115 µM
# In short: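 FLuc 10nM, D-luciferin 10uM, ATP 10uM, Mg acetate 10mM, Tris acetate pH 7.5, Tween/BSA; cpd qHTS; enzyme added last; CCD luminescence.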
# Potency is read from the fitted curve at half-maximal effect; tags tell the direction and shape of the fitted curve.
# Sequence of UniProt P08659 (P08659 whole entry, looked up): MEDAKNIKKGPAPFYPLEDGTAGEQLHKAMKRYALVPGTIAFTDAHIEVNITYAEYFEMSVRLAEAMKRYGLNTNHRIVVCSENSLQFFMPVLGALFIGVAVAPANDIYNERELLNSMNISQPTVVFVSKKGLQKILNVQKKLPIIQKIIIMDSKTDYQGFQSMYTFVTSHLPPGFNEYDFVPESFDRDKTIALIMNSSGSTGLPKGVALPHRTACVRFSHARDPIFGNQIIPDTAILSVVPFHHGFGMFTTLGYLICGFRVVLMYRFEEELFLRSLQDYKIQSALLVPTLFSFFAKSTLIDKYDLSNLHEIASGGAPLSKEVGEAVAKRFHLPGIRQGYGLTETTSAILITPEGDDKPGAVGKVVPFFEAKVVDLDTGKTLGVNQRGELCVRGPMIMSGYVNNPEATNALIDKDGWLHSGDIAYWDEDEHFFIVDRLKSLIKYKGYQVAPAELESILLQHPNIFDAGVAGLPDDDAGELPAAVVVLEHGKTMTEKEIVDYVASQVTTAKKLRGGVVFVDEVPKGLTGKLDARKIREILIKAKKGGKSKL
row,SMILES,Potency
1,Cc1ccc(-c2nnc([C@H]3CCN(C(C)C)C3)o2)cc1,"inconclusive: 89.1 µM [inhibitor, partial curve]"
2,O=C(NCCN1CCOCC1)c1c[nH]c2ncccc12,inactive
3,C[C@@H](NS(C)(=O)=O)c1onc(-c2cccnc2)c1C(=O)O,inactive
4,COc1ccc(OC2CCN(C(C)=O)CC2)c(C(=O)N2C[C@@H]3CCC[C@H]2C3)c1,inactive
5,CCCn1cc(CNC(=O)c2cc3c(s2)CCC(C)C3)cn1 (configuration not stated),active: 31.6 µM
6,Cc1ccc(C2=NC3(CCN(C(=O)c4ccc5[nH]ccc5c4)CC3)ON2)cc1,"inconclusive: 50.1 µM [inhibitor, partial curve]"
7,Cc1n[nH]c(C)c1Cc1ccc(C(=O)N2CCc3c(nc4cc(-c5ccccc5)[nH]n4c3=O)C2)o1,"inconclusive: 20 µM [inhibitor, full curve]"
8,COc1cccc(CN2CCc3c(cc(C(=O)Nc4ccccc4OC)n3C)C2)c1,active: 15.8 µM
9,O=C(NCC1CN(Cc2ccncc2)CC12CN(c1ccccc1)C2)Nc1ccccc1 (configuration not stated),inactive
10,Clc1ccc(-c2nnc([C@H]3CCN(Cc4ccco4)C3)o2)cc1,active: 44.7 µM
11,COc1cccc(-c2cc3c(=O)n(CCNC(=O)C4CCCCC4)ccn3n2)c1,"inconclusive: 3.55 µM [inhibitor, full curve]"
12,CCN1c2cc(C(=O)Nc3ccc(-n4ccnc4)cc3)ccc2C(=O)N2CCCCCC21 (configuration not stated),inactive
13,COc1cc(C(=O)N2CCC(O)(c3ccc(C)cn3)CC2)cc(OC)c1OC,inactive
14,COCCNc1ncc(-c2ccccc2)c2c1OCC2,active: 28.2 µM
15,O=C(NCCn1ccn2nc(-c3ccc(F)cc3)cc2c1=O)c1cccs1,"inconclusive: 3.55 µM [inhibitor, full curve]"
16,CNC(=O)CCn1ncc2cc(OCc3ccccc3-c3ccc(F)cc3OC)ccc21,"inconclusive: 50.1 µM [inhibitor, full curve]"
17,COCCN1C(=O)c2ccccc2C(C(=O)Nc2cc(C)ccc2OC)C12CCCCC2 (configuration not stated),inactive
18,O=C(NC[C@H]1Cn2c(-c3ccc(F)cc3)cnc2CO1)c1ccc(Cl)cc1,"inconclusive: 79.4 µM [inhibitor, partial curve]"
19,CN(C)Cc1ccc(-c2cc3c(ccn3C)c(C(=O)NCc3cccnc3)n2)cc1,inactive
20,O=C1NCCCCCCN(Cc2ccncc2)[C@@H]2CN(Cc3ccncc3)CC[C@@H]12,inactive
21,Cc1ccc(-c2cn3c(n2)CO[C@@H](CNC(=O)c2ccc(Cl)cc2)C3)cc1,active: 39.8 µM
22,O=C(Nc1ccc(F)cc1)N1CC[C@H]2COC(=O)N2c2cc(F)ccc2C1,active: 56.2 µM
